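96-well plates; 48 h exposure; 5 concentrations. Endpoints by linear interpolation between flanking doses. Not reached: highest tested concentration assigned. GI50 = concentration required for 50% inhibition of growth.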 The source made the active and inactive calls. No stated cut-off is given here; in the data, active = GI50 up to about 1.1 µM and inactive = higher.

30 compounds from ChEMBL document CHEMBL1201862, “PubChem BioAssay data set” (2004) can be followed below.

The subject of the assay is NCI-H322M. Briefly: NCI tumour cell line growth inhibition, 48 h.
On to `O=c1ccn(COC(COCc2ccccc2)COCc2ccccc2)c(=O)[nH]1`, for which the GI50 was inactive: > 100 µM.

For `Nc1ccn(C2OC(COP(=O)(O)OCC3OC(n4cc(F)c(=O)[nH]c4=O)CC3O)C(O)C2O)c(=O)n1` (stereo not given), the GI50 was inactive: > 100 µM.

As to `COc1cc(C2CC(C)(Nc3ccccc3)Oc3cc4c(cc32)OCO4)cc(OC)c1OC` (stereo not given), the GI50 was active: 0.582 µM. As for `COC(=O)[C@H]1C=NN[C@@H]1C(=O)N1[C@H]2CC3CC[C@@]2(CS1(=O)=O)C3(C)C`, the GI50 is inactive: > 100 µM. As to `C[C@]12CC(C#N)C(=O)C(O)=C1CC[C@@H]1C2CC[C@@]2(C)C1CC[C@@H]2O` (stereo not given in full), the GI50 is inactive: 57.8 µM. For the compound `N#Cc1ccc(CSC2=C(c3ccc(Cl)cc3)S/C(=C3\SC(SCc4ccc(C#N)cc4)=C(c4ccc(Cl)cc4)S3)S2)cc1`, the GI50 was inactive: > 100 µM. The same measure for `CC(=O)ON(C(C)=O)C1C(COC(c2ccccc2)(c2ccccc2)c2ccccc2)OC2OC3(CCCC3)OC21` (stereo not given): inactive: > 81.5 µM. As for `CC1OC(O[C@@H]2OC=C(C=O)[C@@]3(O)CC[C@H](C)[C@@H]23)C(O)C(O)C1O` (stereo not given in full), the figure is inactive: > 100 µM.

Consider `FC(F)(F)c1ccc2nc(Sc3ccc4ccccc4c3)cnc2c1`, for which the GI50 is inactive: > 100 µM.

Turning to `Nc1nc(NCCO)c(N=O)c(=O)[nH]1`, the GI50 is inactive: > 100 µM.

For `C/C(CCn1[nH]c(=O)ccc1=O)=N\N=C(N)N`, the GI50 is inactive: > 100 µM. As to `CC(=O)Nc1ccc(Nc2cc(=O)n(C)c(=O)[nH]2)cc1`, the GI50 was inactive: > 100 µM. As for `Cc1ccc(NC(=O)C(=O)C(C#N)c2ccccc2C)cc1C` (stereo not given), the figure is inactive: > 100 µM; as for `N#CC(/C(=N/NC(=N)N)C(=O)Nc1ccccc1[N+](=O)[O-])c1nc(-c2ccc([N+](=O)[O-])cc2)cs1` (stereo not given), inactive: > 100 µM. As for `CC(=O)C1C(c2ccccc2)C2(C)OC(=O)C(C#N)C12C` (stereo not given), the figure is inactive: > 100 µM; as for `C#CC(O)/C=C/C(O)CCCC(O)CC#CC(O)C#CCCCCC(O)/C=C/CCCCCC(=O)CCCCCCCCCCCCCC(O)C(O)C#CC(=O)O` (stereo not given), inactive: > 25 µM; as for `CCc1cccc(C(C)C)c1NC(=O)CCl`, inactive: > 100 µM.

Consider `CC(NC(=O)C(N)CC(=O)O)C(=O)OC12CC3CC(CC(C3)C1)C2` (stereo not given), for which the GI50 was inactive: > 100 µM. With `Cc1nnc(N2C(=O)C(=Cc3ccc(Cl)cc3)N=C2c2ccc(Cl)cc2)nc1/C=C\c1ccc(N(C)C)cc1`, the GI50 is inactive: > 100 µM. As for `Cc1ccc(S(=O)(=O)N2C[C@](O)(c3ccccc3)[C@H]2C)cc1`, the figure is inactive: > 100 µM; as for `CC(C)(C)c1nc2c(o1)/C(=N\c1ccc(F)cc1)c1ccccc1C2=O`, inactive: 18.3 µM; as for `O=[N+]([O-])/C(C(Cl)=C(Cl)Cl)=C(/Nc1cccc2cccnc12)n1nnc2ccccc21`, inactive: 20.9 µM. The same measure for `O=c1c2ccccc2nc(-c2ccccc2)n1NC(=S)Nc1ccccc1`: inactive: > 100 µM; for `c1cc(-c2ncc(-c3ccc4c(c3)CCCO4)o2)ccn1`: inactive: 34.8 µM. The same measure for `COc1cccc(NC(=O)CC(=O)n2nc(C)c(/N=N/c3ccccc3)c2C)c1`: inactive: > 100 µM.

As to `Cc1nc(C(N)=S)sc1C(=O)CC(=O)C(=O)Nc1cccc(Cl)c1C`, the GI50 is inactive: > 100 µM.

With `COC(=O)[C@@H]1C(=O)O[C@@H](c2ccc(OC)c(OC)c2OC)[C@@H]1C(=O)OC.COC(=O)[C@H]1C(=O)O[C@@H](c2ccc(OC)c(OC)c2OC)[C@@H]1C(=O)OC`, the GI50 was inactive: > 100 µM.

`O=C1/C(=C/c2cccc(Br)c2)CCc2ccccc21`: the GI50 was inactive: 17.7 µM. The same measure for `CCN(CC)C(=S)SS(=O)(=O)c1ccccc1C(=O)O`: inactive: > 100 µM; for `COc1cc2c(/C=C3/C(=O)N(C)c4ccccc43)c(Cl)[nH]c2cc1C`: inactive: 2.53 µM.
